In assay [1] the target is T1, Mouse BMP1 CD+CUB1 truncated antigen (mouse, UniProt P98063 126-439, limits assumed).
T1 construct: domain: CD+CUB1
T1 sequence (looked up): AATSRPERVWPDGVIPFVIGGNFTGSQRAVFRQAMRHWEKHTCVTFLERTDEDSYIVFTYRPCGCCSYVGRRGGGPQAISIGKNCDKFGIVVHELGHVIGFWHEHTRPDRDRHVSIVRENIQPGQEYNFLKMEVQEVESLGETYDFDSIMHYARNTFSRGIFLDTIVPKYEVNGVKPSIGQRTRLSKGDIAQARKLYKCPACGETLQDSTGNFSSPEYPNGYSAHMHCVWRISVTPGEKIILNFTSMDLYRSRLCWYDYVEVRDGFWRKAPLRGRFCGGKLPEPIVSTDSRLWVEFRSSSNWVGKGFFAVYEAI
Briefly: SPR, mAb captured on protein A/G, HBS-EP. As to the method: Both antibodies 13Y039-4B06-4334 and 13Y039-3E07-2944 and the reverse chimeric antibodies were evaluated for binding to human TLL2 CD+CUB1 and mouse BMP1 CD+CUB1 truncated antigens by SPR on a BIACORE T200. Protein A/G was immobilised to a CM5 sensor chip via amine coupling and the antibodies were captured to the protein A/G surface. The antigens were passed over the captured antibody at various concentrations. The measured affinities to human TLL2 CD+CUB1 are shown in Table 2 and the measured affinities to mouse BMP1 CD+CUB1 are shown in Table 3.
For orientation: In SPR one partner is held on a chip, and binding of the other changes the refractive index at the surface.

Assay [2] addresses T2, Rat TLL1 (rat, UniProt A0ABK0LNZ6 99-957).
T2 sequence: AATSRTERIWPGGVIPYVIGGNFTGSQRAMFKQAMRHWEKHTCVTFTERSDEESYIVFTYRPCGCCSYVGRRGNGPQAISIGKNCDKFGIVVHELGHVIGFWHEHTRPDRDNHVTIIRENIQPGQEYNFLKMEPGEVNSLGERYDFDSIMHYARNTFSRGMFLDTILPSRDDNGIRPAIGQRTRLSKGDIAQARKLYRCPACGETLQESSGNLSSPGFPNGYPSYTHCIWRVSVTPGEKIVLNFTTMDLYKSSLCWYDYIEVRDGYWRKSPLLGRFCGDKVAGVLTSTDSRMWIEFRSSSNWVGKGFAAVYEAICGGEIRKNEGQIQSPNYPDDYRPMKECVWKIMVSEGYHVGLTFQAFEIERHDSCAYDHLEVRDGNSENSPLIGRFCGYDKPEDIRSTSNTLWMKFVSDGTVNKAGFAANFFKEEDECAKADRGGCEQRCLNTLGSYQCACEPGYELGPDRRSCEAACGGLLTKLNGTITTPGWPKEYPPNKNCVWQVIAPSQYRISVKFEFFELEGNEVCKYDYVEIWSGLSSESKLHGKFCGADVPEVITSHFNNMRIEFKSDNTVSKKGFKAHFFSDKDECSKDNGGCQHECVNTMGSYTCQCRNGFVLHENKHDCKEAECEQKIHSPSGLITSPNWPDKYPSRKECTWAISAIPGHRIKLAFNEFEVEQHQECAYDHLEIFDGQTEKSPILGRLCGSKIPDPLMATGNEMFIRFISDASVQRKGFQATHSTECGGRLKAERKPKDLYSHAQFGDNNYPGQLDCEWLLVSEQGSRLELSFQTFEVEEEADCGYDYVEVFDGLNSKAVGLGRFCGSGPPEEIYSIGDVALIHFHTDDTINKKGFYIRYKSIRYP
Briefly: cell-based or functional assay.

The target in assay [3] is T3, Human BMP1 CD+CUB1 truncated antigen (human, UniProt P13497 121-434, limits assumed).
T3 construct: domain: CD+CUB1
T3 sequence (looked up): T1 sequence (looked up) with I99V, V134P, S178P, M247L, G279S
Briefly: SPR, mAb captured on protein A, HBS-EP. As to the method:
The 16 lead panel antibodies expressed in HEK cells were evaluated for binding to a truncated version of human BMP containing the catalytic domain and truncated domain (Human BMP1 CD+CUB1 truncated antigen) by SPR using BIACORE T200. HBS-EP+ buffer was used and the experiment run at 25° C. Protein A was immobilised to a CM5 sensor chip via amine coupling. The lead panel antibodies were captured onto protein A surface. Human BMP1 CD+CUB1 was then passed over the captured antibodies at various concentrations.

Assay [4] concerns the target T4, Mouse BMP1-3: 126-707 (mouse, UniProt P98063 126-707).
T4 sequence (looked up): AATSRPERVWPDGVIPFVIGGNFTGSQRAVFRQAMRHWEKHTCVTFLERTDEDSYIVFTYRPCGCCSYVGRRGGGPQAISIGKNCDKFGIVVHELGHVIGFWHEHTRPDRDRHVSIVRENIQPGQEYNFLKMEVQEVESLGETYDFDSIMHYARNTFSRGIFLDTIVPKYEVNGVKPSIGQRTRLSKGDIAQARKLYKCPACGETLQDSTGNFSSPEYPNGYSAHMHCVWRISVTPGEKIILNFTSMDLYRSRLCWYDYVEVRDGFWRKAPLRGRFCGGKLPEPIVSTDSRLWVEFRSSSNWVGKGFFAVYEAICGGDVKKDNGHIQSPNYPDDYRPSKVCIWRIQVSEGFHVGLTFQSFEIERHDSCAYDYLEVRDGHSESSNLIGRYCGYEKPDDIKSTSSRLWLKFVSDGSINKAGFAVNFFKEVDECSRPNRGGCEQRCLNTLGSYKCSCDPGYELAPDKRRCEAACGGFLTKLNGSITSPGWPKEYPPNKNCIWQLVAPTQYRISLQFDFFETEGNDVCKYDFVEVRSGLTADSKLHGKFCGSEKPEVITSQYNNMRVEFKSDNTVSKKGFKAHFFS
Briefly: cell-based or functional assay.

Positions count from the first letter of the chain named. Values joined by “and” are separate entries in the source; they are usually repeats but may differ in a detail not shown here. Equal values may be shown once.

B1: 13Y039-3E07-2944 (antibody, human IgG1, kappa)
heavy: QVQLQQWGAGLLKPSETLSLTCAVYGGSFFGDYWSWIRQPPGKGLEWIGEIDWSGATNYNPSLKSRVTISVDTSKNQFSLKLSSVTAADTAVYYCARGGSKELSFDIWGQGTMVTVSS[gap - human IgG1 constant region with L235A G237A (EU numbers)]
light: DIQMTQSPSSLSASVGDRVTITCQASQDIANYLNWYQQKPGKAPKLLIYDASNLETGVPSRFSGSGSGTDFTFTISSLQPEDIATYYCQQADTLPFTFGGGTKVEIKRTVAAPSVFIFPPSDEQLKSGTASVVCLLNNFYPREAKVQWKVDNALQSGNSQESVTEQDSKDSTYSLSSTLTLSKADYEKHKVYACEVTHQGLSSPVTKSFNRGEC
notes: Fully human IgG1 LAGA, kappa; HEK expressed; also called HEK-expressed 13Y039-3E07-2944
Take B1: the Kd in assay [1] was 6.1 nM and 5.23 nM; in assay [3], 4.3 nM and 4.25 nM and 3.66 nM. For the same molecule, the “IC50 (read off the curve)” value in assay [2] was about 0.9 nM; in assay [4], about 0.05 nM.

As a reminder, the Kd is the constant that tells how readily two partners part at equilibrium.

The values are drawn from US20230279089A1 (GlaxoSmithKline, published 2023).
